This list was built around the results that the source calls inconclusive (neither active nor inactive); the mix of calls is not that of the screen. Potencies beside an inconclusive call are fits to weak or partial responses and may not hold up. The source made the active and inactive calls. Calls come from the whole dose curve; as a rule, active = well fitted activation curve with a large enough effect; inconclusive = small, poorly fitted or top-dose-only effect; inactive = no such curve, though single readings can be large or run the other way.
molecular target: Cellular tumor antigen p53 (Homo sapiens) (UniProt P04637); assay: Primary qHTS for small molecule compounds that upregulate eGFP-tagged delta133p53alpha (in N-terminal) cells. (AID 2060322); conditions: NCI-H358 eGFP-delta133p53alpha fluorescence, 24 h; activation: active compounds read high;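 note: cells pre-induced with doxycycline then dosed without doxycycline; nearly all actives have a fitted effect of over 75% in size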;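 for activation: series mostly up to about 56 µM; 0% = DMSO vehicle and 100% = reference activator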
Sequence of UniProt P04637 (P04637 whole entry, looked up): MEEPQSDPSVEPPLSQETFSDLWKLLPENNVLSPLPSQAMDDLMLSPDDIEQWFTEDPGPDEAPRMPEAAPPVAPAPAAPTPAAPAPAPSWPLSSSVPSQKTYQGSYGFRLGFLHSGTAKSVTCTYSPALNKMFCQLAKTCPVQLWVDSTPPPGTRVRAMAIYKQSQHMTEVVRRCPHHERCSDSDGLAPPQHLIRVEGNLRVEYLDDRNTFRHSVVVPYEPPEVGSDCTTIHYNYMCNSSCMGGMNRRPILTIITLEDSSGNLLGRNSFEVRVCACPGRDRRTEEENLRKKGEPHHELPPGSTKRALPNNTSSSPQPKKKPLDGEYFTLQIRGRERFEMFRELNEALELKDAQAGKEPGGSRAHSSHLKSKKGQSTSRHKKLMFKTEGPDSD
In short: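 NCI-H358 cells pre-induced 24 h with 10 ng/ml doxycycline for eGFP-delta133p53alpha, plated dox-free and exposed 24 h at 37C to titrated compounds. Fixed, Hoechst-stained; gated GFP peak intensity by laser scanning cytometry, normalized to DMSO (0%) and 57.5 uM 5-azacytidine (100%).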
Potency is the fitted concentration of half-maximal effect; tags give direction and shape of the fitted curve.

SMILES | Potency | activation
COc1ccc(CCC(=O)c2c(O)cc(O)cc2O[C@@H]2O[C@H](CO)[C@@H](O)[C@H](O)[C@H]2O)cc1 | inconclusive: 18.5 µM [activator, single point] | –
C/C1=C/CCC2=CC(OC2=O)C(C)(C)/C=C/C1=O (stereo not given) | active: 4.26 µM | –
CCN1CCC[C@@H]1CNC(=O)c1ccc2c(c1)NC(=O)/C(=C/c1ccccc1F)S2 | inconclusive: 37.9 µM [activator, single point] | –
Cc1cc(-c2ncc(-c3cccnc3)cc2/C=C/c2ccccc2)cnc1-c1cccnc1 | – | inactive: 15.7%
COc1cc2[nH]c(=O)[nH]c(=O)c2cc1OC | – | inconclusive: -30.1% [activator]
CCCCc1c(-c2ccc(OC)cc2)[nH]c2nccnc12 | – | inactive: 5.25%
CC(=O)/C=C/[C@H]1[C@](C)(O)[C@@H](O)[C@H](O)C2C(C)(C)CCC[C@@]21C (stereo not given in full) | inconclusive: 0.83 µM [activator, full curve] | –
C[C@@H]1O[C@@H](O[C@H]2[C@H](O[C@H]3CC[C@@]4(C)C(CC[C@]5(C)C4C=C[C@]46OC[C@@]7(CCC(C)(C)C[C@H]74)[C@@H](O)C[C@]65C)[C@]3(C)CO)O[C@H](CO)[C@@H](O)[C@@H]2O[C@@H]2O[C@H](CO)[C@@H](O[C@@H]3O[C@@H](C)[C@H](O)[C@@H](O)[C@H]3O)[C@H](O)[C@H]2O)[C@H](O)[C@H](O)[C@H]1O (stereo not given in full) | inconclusive: 10.2 µM [activator, partial curve, poor fit] | –
COc1ccc(CCc2nc3c(C)c(-c4c(C)noc4C)c(C)cc3n2CCN2CCOCC2)cc1 | inconclusive: 13.7 µM [activator, single point] | –
COC(=O)C1=CO[C@@H](O[C@@H]2O[C@H](CO)[C@@H](O)[C@H](O)[C@H]2O)C2C1C(=O)C[C@H]2C (stereo not given in full) | inconclusive: 7.4 µM [activator, partial curve, poor fit] | –
CCC(=O)OCC(=O)[C@@]1(OC(=O)CC)[C@@H](C)C[C@H]2[C@@H]3CCC4=CC(=O)C=C[C@]4(C)[C@@]3(F)[C@@H](O)C[C@@]21C | – | inactive: -5%
O=C(Nc1nc2cc(C(F)(F)F)cc(NC3CC3)n2n1)c1cccnc1 | active: 4.78 µM | –
N#Cc1c(Oc2ccc(F)c(NC(=O)Cc3cccc(C(F)(F)F)c3)c2)ccc2nc(NC(=O)C3CC3)sc12 | inconclusive: 4.78 µM [activator, full curve, poor fit] | –
CC(C)(C(=O)c1cccnc1)c1cccnc1 | inconclusive: 38.9 µM [activator, single point] | –
CC(C)(C)CC(C)(C)c1ccc(O)c(Cc2ccc(Cl)cc2Cl)c1 | inconclusive: 38.9 µM [activator, single point] | –
Oc1cccc(C2NC(=S)Nc3cccc(F)c32)c1 (stereo not given) | inconclusive: 4.26 µM [activator, single point] | –
COC(=O)C1=C2Nc3ccccc3C23CCN2CCCC(C(C)O)(C1)C23 (stereo not given) | – | inactive: 18.8%
CC1CCN(C(c2ccc(F)cc2)c2ccc(C(C)C(=O)O)cc2-c2ccc(C(F)(F)F)cc2)CC1 (stereo not given) | inconclusive: 37.9 µM [activator, single point] | –
N#CCC(=O)NN | – | inactive: 15.9%
CC(NCCC(c1ccccc1)c1ccccc1)c1ccccc1 (stereo not given) | inconclusive: 38.9 µM [activator, single point] | –

SMILES | Potency | activation
CC(C(O)c1ccccc1)N(C)CCOC(c1ccccc1)c1ccccc1 (stereo not given) | active: 21.9 µM | –
COc1ccc(-c2oc3cc(OC)ccc3c2C(=O)c2ccc(C#N)cc2)cc1 | inconclusive: 27.3 µM [activator, partial curve, poor fit] | –
O=C(O)c1ccc(OCCN2CCCCC2)cc1 | – | inactive: -14.1%
Oc1cc(O)c2c(c1)O[C@H](c1ccc(O)c(O)c1)[C@H](O)C2 | inconclusive: 38.9 µM [activator, single point] | –
CN(C)c1nc(NC2CCC(NC(=O)c3ccc(F)c(F)c3)CC2)nc2ccccc12 (stereo not given) | inconclusive: 37.9 µM [activator, single point] | –
O=C(NCc1ccccc1)[C@H](Cc1ccccc1)NC(=O)[C@@H]1O[C@@H]1C(=O)NCCc1ccc(O)cc1 | – | inactive: 16.6%
CC1(C)CC[C@]2(C(=O)O)CC[C@]3(C)C(=CCC4[C@@]5(C)C[C@@H](O)[C@H](O)C(C)(C)C5CC[C@]43C)C2C1 (stereo not given in full) | inconclusive: 2.33 µM [activator, single point] | –
COc1ccc(-c2cnc(-c3cccc4c3-c3ccccc3C4=O)o2)cc1 | inconclusive: 0.0415 µM [activator, full curve, poor fit] | –
CC(C)(O)C1CCC2(C)CCCC(C)(O)C2C1 (stereo not given) | – | inactive: 2.68%
CCCCCCCCOc1ccc(C(=O)c2ccccc2)c(O)c1 | – | inactive: -2.82%
COc1cc(N2CCC(C(N)=O)CC2)ccc1Nc1nc(N)c(Cl)c(Nc2ccccc2S(=O)(=O)C(C)C)n1 | inconclusive: 43.2 µM [activator, single point] | –
OCCc1ccccc1 | – | inactive: 1.69%
O=C(O)C=Cc1ccc(Cn2ccnc2)cc1 | inconclusive: 8.63 µM [activator, partial curve] | –
COc1ccc(C=Cc2cc(OC)c(OC)c(OC)c2)cc1O | inconclusive: 0.0077 µM [activator, full curve, poor fit] | –
O=C(O)[C@@H]1[C@H]2C[C@H]3c4[nH]c5ccccc5c4CCN3C[C@@H]2CC[C@@H]1O | active: 3.09 µM | –
CN1CCN(C(=O)c2ccc(Nc3nccc(-c4cccs4)n3)cc2Cl)CC1 | active: 30.1 µM | –
CCC(C)C(=O)Oc1cc(C)ccc1C1(COC(=O)C(C)C)CO1 (stereo not given) | inconclusive: 26.2 µM [activator, single point] | –
CC(C)(C[C@@](O)(Cc1cc2ccncc2[nH]1)C(F)(F)F)c1cc(F)ccc1O | – | inactive: 13.4%
CCC(C)CC(=O)OC1C(=O)C(CO)=CC(O)C1C(C)C (stereo not given) | active: 23.9 µM | –
COc1cc([C@H]2Oc3cc([C@H]4Oc5cc(O)cc(O)c5C(=O)[C@H]4O)ccc3O[C@H]2CO)ccc1O | inconclusive: 43.2 µM [activator, single point] | –

From PubChem BioAssay (NCATS)
